About 190 (0.13%) of roughly 150,000 compounds were called active. Inconclusive results, whose numbers are uncertain, are shown with a selection of clear calls. Calls come from the whole dose curve; as a rule, active = well fitted inhibition curve with a large enough effect; inconclusive = small, poorly fitted or top-dose-only effect; inactive = flat fitted curve, though single readings scatter. A potency beside an inconclusive call is a rough fit, not a confirmed value.
Target: Polyunsaturated fatty acid lipoxygenase ALOX12 (Homo sapiens) (UniProt P18054)
UniProt P18054, sequence (P18054 whole entry, looked up): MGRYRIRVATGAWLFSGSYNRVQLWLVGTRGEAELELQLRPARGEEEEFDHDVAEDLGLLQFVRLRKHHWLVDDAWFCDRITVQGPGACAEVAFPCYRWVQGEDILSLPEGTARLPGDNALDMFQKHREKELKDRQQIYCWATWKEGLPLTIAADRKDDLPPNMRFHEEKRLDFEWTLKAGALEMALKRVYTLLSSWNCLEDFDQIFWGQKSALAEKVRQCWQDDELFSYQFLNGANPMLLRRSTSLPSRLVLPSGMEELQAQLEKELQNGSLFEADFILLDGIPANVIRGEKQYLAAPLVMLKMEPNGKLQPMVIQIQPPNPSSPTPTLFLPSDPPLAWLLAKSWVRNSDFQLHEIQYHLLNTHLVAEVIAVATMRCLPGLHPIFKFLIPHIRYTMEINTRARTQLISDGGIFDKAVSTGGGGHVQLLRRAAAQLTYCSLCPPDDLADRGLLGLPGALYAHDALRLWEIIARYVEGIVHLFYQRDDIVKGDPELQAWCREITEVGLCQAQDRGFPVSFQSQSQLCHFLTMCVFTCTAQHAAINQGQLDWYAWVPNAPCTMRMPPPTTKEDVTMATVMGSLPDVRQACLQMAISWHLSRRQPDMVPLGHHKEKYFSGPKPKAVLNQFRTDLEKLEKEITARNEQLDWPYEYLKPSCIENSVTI
Assay: qHTS Assay for Inhibitors of 12-hLO (12-human lipoxygenase); note: nearly all actives have a fitted effect of over 55% in size
Settings: purified 12-hLO, xylenol orange hydroperoxide absorbance; series mostly up to 57.1 µM
In short: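 Purified human 12hLO (150 nM), preincubated 15 min with compound, then 40 uM arachidonic acid for 30 min, room temperature, Hepes pH 7.0 with 0.01% Triton X-100. Hydroperoxide detected by ferrous iron/xylenol orange; 573/405 nm absorbance ratio gives reaction progress.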
Potency is the fitted concentration of half-maximal effect; tags give direction and shape of the fitted curve.

| SMILES | Potency |
| --- | --- |
| COC(=O)c1ccc(C(NC(=O)OCc2ccccc2)/C(C)=C/[C@@H](C)C(=O)NCc2nc3ccccc3s2)cc1 (some centres undefined) | inactive |
| Cc1nn(-c2ccccc2)c(Cl)c1/C=N/Nc1ccc(S(=O)(=O)Nc2ccccc2C(=O)O)cc1[N+](=O)[O-] | inconclusive: 25.1 µM [inhibitor, single point] |
| CCOc1ccc(-c2[nH]ncc2Oc2ccccc2OC)c(O)c1 | inconclusive: 20 µM [inhibitor, partial curve] |
| CCc1nnc(NC(=O)c2ccc(OC)cc2OC)s1 | inactive |
| CC(C)N=c1scc(-c2ccco2)n1/N=C/c1ccc(O)c(O)c1 | inconclusive: 17.8 µM [inhibitor, partial curve] |
| Cc1ccc2nc(SCC(=O)N3CCN(C(=O)c4ccco4)CC3)[nH]c2c1 | inactive |
| CC(C)C(=O)NC(c1cccs1)c1cc([N+](=O)[O-])c2cccnc2c1O (centres undefined) | inconclusive: 0.631 µM [inhibitor, full curve] |
| COC(=O)c1cc(OC)c(OC)cc1NC(=S)N1CCN(c2ccccc2)CC1 | inactive |
| COc1cccc(-n2c(SCc3cc(=O)oc4cc(O)c(O)cc34)nc3ccccc3c2=O)c1 | inconclusive: 0.126 µM [inhibitor, full curve] |
| CCOc1ccc(CSCCNC(=S)Nc2ccccc2)cc1 | inconclusive: 39.8 µM [inhibitor, single point] |
| Nc1ccc(N2CCN(C(=O)c3ccco3)CC2)cc1 | inconclusive: 25.1 µM [inhibitor, partial curve] |
| COC(=O)c1cc(COc2ccc3ccc(=O)oc3c2)c(C)o1 | inactive |
| ICCc1ccccc1 | inconclusive: 39.8 µM [inhibitor, single point] |
| Cc1cccc(C(=O)NC(NC(=S)Nc2ccc(S(N)(=O)=O)cc2)C(Cl)(Cl)Cl)c1 (centres undefined) | inconclusive: 22.4 µM [inhibitor, partial curve] |
| COc1ccc(C=NC(CO)C(O)c2ccc([N+](=O)[O-])cc2)cc1 (centres undefined) | inconclusive: 5.62 µM [inhibitor, full curve] |
| C=CCOC(=O)C1=C(C)NC(=S)NC1/C=C/c1ccccc1 (centres undefined) | inconclusive: 2.51 µM [inhibitor, full curve, poor fit] |
| CCNc1oc(-c2cccc3ccccc23)nc1C#N | inconclusive: 0.891 µM [inhibitor, full curve, poor fit] |
| COc1ccccc1C1CC(=O)Oc2cc(C)c(Cl)cc21 (centres undefined) | inconclusive: 31.6 µM [inhibitor, single point] |
| O=C(NCc1ccc2c(c1)OCO2)c1ccc(-c2ccc(Cl)cc2)o1 | inconclusive: 17.8 µM [inhibitor, partial curve] |
